Measured values as given in the supplement of paper PMC4967469.

compound: C=CC(=O)Nc1ccc(C(=O)c2sc(Nc3ccc(N4CCN(C)CC4)cc3OC)nc2N)cc1 [XMD15-27]; experiment: Viability of human cancer cell lines after 72 h of drug (GDSC screen); details: top dose 10.24 µM; top dose inferred
Experimental: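 Human cancer cell lines in 384-well plates, medium with 10% serum, drug for 72 h over a 256-fold dose range (nine 2-fold or five 4-fold steps up to the top dose). Adherent lines were fixed and stained with the nucleic acid dye Syto60, suspension lines read with resazurin; signal relative to control wells, capped at 0 and 100%. One two-parameter sigmoid per drug and line, fitted in a mixed model over all curves with the slope shared within a line.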

**Q.** What does the source list for 769-P (kidney, adherent)?
**A.** AUC: 0.972; pIC50: < 4.99

**Q.** What does the source list for A204 (rhabdomyosarcoma, adherent)?
**A.** AUC: 0.952; pIC50: < 4.99

**Q.** What does the source list for BC-3 (B-cell lymphoma, suspension)?
**A.** AUC: 0.98; pIC50: < 4.99

**Q.** Which AUC does the source give for “BEN (non-small cell lung carcinoma, adherent)” here?
**A.** 0.986

**Q.** What about the pIC50 of the same cell line?
**A.** < 4.99

**Q.** Which AUC does the source give for BFTC-909 (kidney, adherent) here?
**A.** 0.988

**Q.** And the pIC50?
**A.** < 4.99

**Q.** Which results are given for BICR31 (head and neck, adherent)?
**A.** AUC: 0.988; pIC50: < 4.99

**Q.** With CAL-148 (breast, suspension) as the cell line, how does the AUC read?
**A.** 0.989

**Q.** What about the pIC50 of the same cell line?
**A.** < 4.99

**Q.** What does the source list for CAMA-1 (breast, adherent)?
**A.** AUC: 0.979; pIC50: < 4.99

**Q.** For COLO-792 (melanoma, adherent), which AUC is on record?
**A.** 0.95

**Q.** And the pIC50?
**A.** < 4.99

**Q.** With COLO-829 (melanoma, adherent) as the cell line, how does the AUC read?
**A.** 0.979

**Q.** What about the pIC50 of the same cell line?
**A.** < 4.99

**Q.** “COR-L105 (lung adenocarcinoma, adherent)” was tested. Which AUC did it give?
**A.** 0.982

**Q.** What about the pIC50 of the same cell line?
**A.** < 4.99

**Q.** “COR-L303 (small cell lung carcinoma, suspension)” was tested. Which AUC did it give?
**A.** 0.982

**Q.** What about the pIC50 of the same cell line?
**A.** < 4.99

**Q.** With “COR-L311 (small cell lung carcinoma, suspension)” as the cell line, how does the AUC read?
**A.** 0.874

**Q.** What about the pIC50 of the same cell line?
**A.** < 4.99

**Q.** How did the AUC turn out when Caov-3 (ovary, adherent) was run?
**A.** 0.991

**Q.** What about the pIC50 of the same cell line?
**A.** < 4.99

**Q.** For Daoy (medulloblastoma, adherent), which AUC is on record?
**A.** 0.988

**Q.** What about the pIC50 of the same cell line?
**A.** < 4.99

**Q.** With GCT (soft tissue, adherent) as the cell line, how does the AUC read?
**A.** 0.989

**Q.** And the pIC50?
**A.** < 4.99

**Q.** What does the source list for GP5d (large intestine, adherent)?
**A.** AUC: 0.991; pIC50: < 4.99

**Q.** For H2803 (mesothelioma, adherent), which AUC is on record?
**A.** 0.985

**Q.** What about the pIC50 of the same cell line?
**A.** < 4.99

**Q.** For H2804 (mesothelioma, adherent), which AUC is on record?
**A.** 0.981

**Q.** What about the pIC50 of the same cell line?
**A.** < 4.99

**Q.** Which results are given for H2818 (mesothelioma, adherent)?
**A.** AUC: 0.982; pIC50: < 4.99

**Q.** With HCC70 (breast, adherent) as the cell line, how does the AUC read?
**A.** 0.988

**Q.** And the pIC50?
**A.** < 4.99

**Q.** With HCC1599 (breast, suspension) as the cell line, how does the AUC read?
**A.** 0.971

**Q.** And the pIC50?
**A.** < 4.99

**Q.** What does the source list for “HCC-33 (small cell lung carcinoma, adherent)”?
**A.** AUC: 0.988; pIC50: < 4.99

**Q.** Which results are given for HCE-4 (oesophagus, adherent)?
**A.** AUC: 0.992; pIC50: < 4.99

**Q.** With “HEL (acute myeloid leukaemia, semi-adherent)” as the cell line, how does the AUC read?
**A.** 0.981

**Q.** And the pIC50?
**A.** < 4.99

**Q.** For HO-1-N-1 (head and neck, adherent), which AUC is on record?
**A.** 0.988

**Q.** And the pIC50?
**A.** < 4.99

**Q.** With HPAC (pancreas, adherent) as the cell line, how does the AUC read?
**A.** 0.962

**Q.** And the pIC50?
**A.** < 4.99

**Q.** How did the AUC turn out when HPAF-II (pancreas, adherent) was run?
**A.** 0.98

**Q.** And the pIC50?
**A.** < 4.99

**Q.** With HSC-3 (head and neck, adherent) as the cell line, how does the AUC read?
**A.** 0.985

**Q.** And the pIC50?
**A.** < 4.99

**Q.** Which results are given for HTC-C3 (thyroid, adherent)?
**A.** AUC: 0.966; pIC50: < 4.99

**Q.** Which AUC does the source give for HeLa (cervix, adherent) here?
**A.** 0.989

**Q.** And the pIC50?
**A.** < 4.99

**Q.** Which results are given for Hs940-T (melanoma, adherent)?
**A.** AUC: 0.976; pIC50: < 4.99

**Q.** For Hs-445 (Hodgkin lymphoma, suspension), which AUC is on record?
**A.** 0.979

**Q.** What about the pIC50 of the same cell line?
**A.** < 4.99

**Q.** How did the AUC turn out when IM-95 (stomach, adherent) was run?
**A.** 0.986

**Q.** And the pIC50?
**A.** < 4.99

**Q.** For IST-MES1 (mesothelioma, adherent), which AUC is on record?
**A.** 0.988

**Q.** And the pIC50?
**A.** < 4.99

**Q.** How did the AUC turn out when J82 (bladder, adherent) was run?
**A.** 0.988

**Q.** What about the pIC50 of the same cell line?
**A.** < 4.99

**Q.** KALS-1 (glioma, adherent) was tested. Which AUC did it give?
**A.** 0.97

**Q.** What about the pIC50 of the same cell line?
**A.** < 4.99

**Q.** Which results are given for KOSC-2 (head and neck, adherent)?
**A.** AUC: 0.985; pIC50: < 4.99

**Q.** Which AUC does the source give for KP-4 (pancreas, adherent) here?
**A.** 0.988

**Q.** What about the pIC50 of the same cell line?
**A.** < 4.99

**Q.** What does the source list for KP-N-YS (neuroblastoma, adherent)?
**A.** AUC: 0.901; pIC50: < 4.99

**Q.** What does the source list for KYSE-180 (oesophagus, adherent)?
**A.** AUC: 0.986; pIC50: < 4.99

**Q.** Which AUC does the source give for KYSE-270 (oesophagus, adherent) here?
**A.** 0.985

**Q.** What about the pIC50 of the same cell line?
**A.** < 4.99

**Q.** For LC-2-ad (lung adenocarcinoma, adherent), which AUC is on record?
**A.** 0.982

**Q.** And the pIC50?
**A.** < 4.99

**Q.** For “LU-99A (large cell lung carcinoma, adherent)”, which AUC is on record?
**A.** 0.986

**Q.** What about the pIC50 of the same cell line?
**A.** < 4.99

**Q.** Which results are given for ML-1 (thyroid, adherent)?
**A.** AUC: 0.955; pIC50: < 4.99

**Q.** For “NCI-H196 (small cell lung carcinoma, adherent)”, which AUC is on record?
**A.** 0.976

**Q.** And the pIC50?
**A.** < 4.99

**Q.** What does the source list for “NCI-H748 (small cell lung carcinoma, suspension)”?
**A.** AUC: 0.975; pIC50: < 4.99

**Q.** Which AUC does the source give for “NCI-H1299 (large cell lung carcinoma, adherent)” here?
**A.** 0.972

**Q.** What about the pIC50 of the same cell line?
**A.** < 4.99

**Q.** With “NCI-H1573 (lung adenocarcinoma, adherent)” as the cell line, how does the AUC read?
**A.** 0.99

**Q.** And the pIC50?
**A.** < 4.99

**Q.** Which results are given for “NCI-H1793 (lung adenocarcinoma, adherent)”?
**A.** AUC: 0.982; pIC50: < 4.99

**Q.** What does the source list for “NCI-H1915 (large cell lung carcinoma, adherent)”?
**A.** AUC: 0.978; pIC50: < 4.99

**Q.** For “NCI-H2170 (lung squamous cell carcinoma, adherent)”, which AUC is on record?
**A.** 0.987

**Q.** What about the pIC50 of the same cell line?
**A.** < 4.99

**Q.** Which results are given for “NCI-H2171 (small cell lung carcinoma, suspension)”?
**A.** AUC: 0.986; pIC50: < 4.99

**Q.** How did the AUC turn out when “NCI-H2196 (small cell lung carcinoma, adherent)” was run?
**A.** 0.987

**Q.** What about the pIC50 of the same cell line?
**A.** < 4.99

**Q.** Which AUC does the source give for “NCI-H2228 (lung adenocarcinoma, adherent)” here?
**A.** 0.891

**Q.** And the pIC50?
**A.** < 4.99

**Q.** Which results are given for PCI-38 (head and neck, adherent)?
**A.** AUC: 0.985; pIC50: < 4.99

**Q.** Which results are given for PL18 (pancreas, adherent)?
**A.** AUC: 0.986; pIC50: < 4.99

**Q.** Which results are given for “PL-21 (acute myeloid leukaemia, suspension)”?
**A.** AUC: 0.98; pIC50: < 4.99

**Q.** Which AUC does the source give for RD (rhabdomyosarcoma, adherent) here?
**A.** 0.985

**Q.** What about the pIC50 of the same cell line?
**A.** < 4.99

**Q.** Which results are given for RT-112 (bladder, adherent)?
**A.** AUC: 0.983; pIC50: < 4.99

**Q.** Which AUC does the source give for SCC-3 (B-cell lymphoma, suspension) here?
**A.** 0.912

**Q.** What about the pIC50 of the same cell line?
**A.** 5.14

**Q.** For “SIG-M5 (acute myeloid leukaemia, suspension)”, which AUC is on record?
**A.** 0.993

**Q.** What about the pIC50 of the same cell line?
**A.** < 4.99

**Q.** How did the AUC turn out when SN12C (kidney, adherent) was run?
**A.** 0.986

**Q.** And the pIC50?
**A.** < 4.99

**Q.** For SNU-175 (large intestine, suspension), which AUC is on record?
**A.** 0.977

**Q.** What about the pIC50 of the same cell line?
**A.** < 4.99

**Q.** How did the AUC turn out when SNU-398 (liver, adherent) was run?
**A.** 0.97

**Q.** And the pIC50?
**A.** < 4.99

**Q.** Which AUC does the source give for SNU-475 (liver, adherent) here?
**A.** 0.98

**Q.** What about the pIC50 of the same cell line?
**A.** < 4.99

**Q.** With SNU-1040 (large intestine, adherent) as the cell line, how does the AUC read?
**A.** 0.968

**Q.** And the pIC50?
**A.** < 4.99

**Q.** For “SU-DHL-1 (anaplastic large cell lymphoma, suspension)”, which AUC is on record?
**A.** 0.915

**Q.** What about the pIC50 of the same cell line?
**A.** 5.13

**Q.** Which results are given for SW156 (kidney, adherent)?
**A.** AUC: 0.974; pIC50: < 4.99

**Q.** How did the AUC turn out when SW837 (large intestine, adherent) was run?
**A.** 0.983

**Q.** What about the pIC50 of the same cell line?
**A.** < 4.99

**Q.** SW872 (soft tissue, adherent) was tested. Which AUC did it give?
**A.** 0.989

**Q.** What about the pIC50 of the same cell line?
**A.** < 4.99

**Q.** SW1088 (glioma, adherent) was tested. Which AUC did it give?
**A.** 0.974

**Q.** And the pIC50?
**A.** < 4.99

**Q.** SW1116 (large intestine, adherent) was tested. Which AUC did it give?
**A.** 0.985

**Q.** What about the pIC50 of the same cell line?
**A.** < 4.99

**Q.** How did the AUC turn out when SW1463 (large intestine, adherent) was run?
**A.** 0.978

**Q.** What about the pIC50 of the same cell line?
**A.** < 4.99

**Q.** T-24 (bladder, adherent) was tested. Which AUC did it give?
**A.** 0.969

**Q.** And the pIC50?
**A.** < 4.99

**Q.** With “TALL-1 (T-cell lymphoblastic leukaemia, suspension)” as the cell line, how does the AUC read?
**A.** 0.99

**Q.** What about the pIC50 of the same cell line?
**A.** < 4.99

**Q.** What does the source list for TE-441-T (rhabdomyosarcoma, adherent)?
**A.** AUC: 0.989; pIC50: < 4.99

**Q.** With TGBC24TKB (biliary tract, adherent) as the cell line, how does the AUC read?
**A.** 0.99

**Q.** And the pIC50?
**A.** < 4.99

**Q.** How did the AUC turn out when U251 (glioma, adherent) was run?
**A.** 0.985

**Q.** And the pIC50?
**A.** < 4.99

pIC50: −log10 of the molar value. By IC50 is meant the dose at which the fit gives 50% viability; fits outside the tested doses are given as limits. The AUC spans the tested range (256-fold, ending at the top dose) of the same fit: 1 means no effect, lower means more sensitive. A top dose marked as inferred comes from the curve model; the source does not state it.
